From US20170342169A1 (published 2017) come the findings set out here.

The assay addresses human CD40 on cells (HEK293 transfectants, HEK-Blue CD40 reporter cells, human B cells, moDC, PBMC) (human, UniProt P25942 21-277). The experiment in a line: cell-based or functional assay.
Sequence of UniProt P25942 (P25942 21-277 limits assumed): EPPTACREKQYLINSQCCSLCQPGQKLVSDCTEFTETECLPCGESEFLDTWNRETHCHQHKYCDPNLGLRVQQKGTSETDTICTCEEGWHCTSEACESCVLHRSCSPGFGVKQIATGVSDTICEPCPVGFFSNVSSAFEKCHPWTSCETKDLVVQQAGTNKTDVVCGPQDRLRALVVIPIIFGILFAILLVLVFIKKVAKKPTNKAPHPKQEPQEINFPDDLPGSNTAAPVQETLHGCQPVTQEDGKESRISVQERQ

B1: V6-6 (bispecific antibody)
chain: EVQLQESGPGLVKPSETLSLTCTVSGYSITSNYYWNWIRQPPGKGLEWMGYIRYDGSNNYNPSLKNRVTISRDTSKNQFSLKLSSVTAADTAVYYCARLDYWGQGTTVTVSSGGGGSGGGGSGGGGSGGGGSGGGGSGGGGSDAQMTQSPSSLSASVGDRVTITCRSSQSLENTNGNTFLNWFQQKPGKAPKLLIYRVSNRFSGVPSRFSGSGSGTDFTLTISSLQPEDFATYYCLQVTHVPFTFGQGTKLEIKR[human IgG1 Fc with C220S V263L (EU numbers) not written out]GGGGSGGGSGGGSGGGGSSYELTQPPSVSVAPGQTARISCSGDKLGDKYASWYQQKPGQAPVLVIYQDNRRPSGIPERFSGSNSGNTATLTISGTQAEDEADYYCQAWDSDTYVFGGGTKLTVLGQGGGGSGGGGSGGGGSGGGGSGGGGSGGGGSEVQLVQSGAEVKKPGASVKVSCKASGDTFKRYYVHWVRQAPGQGLEWMGIINPSGVSTTYAQKFQGRVTMTRDTSTSTVYMELSSLRSEDTAVYYCAEVRGSGFNYFGMDVWGQGTLVTVSS
As to B1, the “Max. IL-12p70, dendritic cells with HEK293 cells expressing mesothelin” value was 300 pg/mL.
